About 14,000 (4.5%) of roughly 310,000 compounds showed an effect of 50% or more. The effect is printed as a negative number. Some of the results follow.
molecular target: human ether-à-go-go-related gene (hERG) potassium channel (human, UniProt Q12809); assay: primary screen, population patch clamp on CHO cells stably expressing hERG
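Note: peak tail current of the secondary pulse compared with the same well before compound.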

Chain of human ether-à-go-go-related gene (hERG) potassium channel (Q12809 whole entry, looked up): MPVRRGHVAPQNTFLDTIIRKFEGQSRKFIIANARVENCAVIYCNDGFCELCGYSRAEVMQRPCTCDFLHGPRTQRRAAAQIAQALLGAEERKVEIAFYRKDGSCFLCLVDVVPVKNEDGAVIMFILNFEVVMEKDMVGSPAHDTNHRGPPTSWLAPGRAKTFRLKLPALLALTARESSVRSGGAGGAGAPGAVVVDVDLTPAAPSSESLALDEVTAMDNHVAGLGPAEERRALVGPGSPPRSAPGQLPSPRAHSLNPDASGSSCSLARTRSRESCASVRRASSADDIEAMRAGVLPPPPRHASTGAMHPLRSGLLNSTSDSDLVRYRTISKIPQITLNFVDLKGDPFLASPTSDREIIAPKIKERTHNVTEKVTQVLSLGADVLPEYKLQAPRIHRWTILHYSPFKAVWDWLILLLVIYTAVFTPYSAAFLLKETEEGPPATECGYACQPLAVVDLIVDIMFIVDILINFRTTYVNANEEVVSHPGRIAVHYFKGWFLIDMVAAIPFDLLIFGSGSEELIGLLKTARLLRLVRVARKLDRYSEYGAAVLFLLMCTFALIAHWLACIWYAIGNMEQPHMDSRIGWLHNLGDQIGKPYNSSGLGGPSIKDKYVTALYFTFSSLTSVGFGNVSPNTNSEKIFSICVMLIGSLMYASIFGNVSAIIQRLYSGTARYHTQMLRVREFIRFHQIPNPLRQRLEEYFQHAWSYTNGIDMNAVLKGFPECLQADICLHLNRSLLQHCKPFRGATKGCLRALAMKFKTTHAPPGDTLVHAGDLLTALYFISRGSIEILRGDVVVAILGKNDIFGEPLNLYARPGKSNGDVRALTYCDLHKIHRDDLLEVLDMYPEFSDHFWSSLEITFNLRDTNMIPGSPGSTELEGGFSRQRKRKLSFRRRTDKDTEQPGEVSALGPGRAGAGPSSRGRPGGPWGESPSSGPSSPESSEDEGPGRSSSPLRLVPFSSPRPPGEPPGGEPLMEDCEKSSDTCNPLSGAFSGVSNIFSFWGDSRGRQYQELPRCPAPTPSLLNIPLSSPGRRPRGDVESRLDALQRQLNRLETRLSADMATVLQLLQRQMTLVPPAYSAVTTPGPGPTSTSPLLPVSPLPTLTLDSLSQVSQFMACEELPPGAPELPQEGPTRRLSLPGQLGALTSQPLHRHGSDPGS

| SMILES | hERG current change (%, negative = inhibition) at 10uM [%] |
| --- | --- |
| COc1ccc(/C=C/C(=O)NC(=S)Nc2ccc(N3CCN(C(C)=O)CC3)cc2)cc1 | 12.2 |
| CN(C1CCCCC1)C(CNS(=O)(=O)c1ccccc1)c1ccccc1 (centres unmarked) | -8.68 |
| O=C(c1ccc(Br)o1)N1CCN=C1SCc1cccnc1 | -11.9 |
| O=C(Nc1ccc(F)cc1)Nc1ccccc1N1CCCCC1 | 5.43 |
| CC(=O)CC(=O)Nc1nc(C)cc(C)n1 | 13.4 |
| CC(C)CNC(=O)COCc1cc(-c2ccc3c(c2)OCO3)on1 | -2.23 |
| O=C(O)C1C2C=CC(O2)C1C(=O)Nc1cccc(C(F)(F)F)c1 (centres unmarked) | 30.9 |
| O=C(NCCCNC(=O)c1ccccc1Cl)c1cnccn1 | 16.8 |
| Cc1ccc([N+](=O)[O-])cc1N/C=C1\CCCCC1=O | 6.81 |
| O=C(N=C1SC2CS(=O)(=O)CC2N1c1cccc(Cl)c1Cl)C1CC1 (centres unmarked) | -1.32 |
| CCCc1nnc(NC(=O)CCC(=O)NC2CCCc3ccccc32)s1 (centres unmarked) | 5.8 |
| O=C(CSc1nnc(N2CCCC2)n1-c1ccccc1Cl)N1CCN(c2ccccn2)CC1 | -24.9 |
| O=[N+]([O-])/C=C/c1cc2ccccc2[nH]1 | 21.4 |
| O=[N+]([O-])c1ccccc1SNc1ccc(Br)cn1 | 14.2 |
| O=[N+]([O-])c1ccc(O)c(C2=NNC(c3ccccc3F)C2)c1 (centres unmarked) | -23.2 |
| Cc1onc(-c2ccccc2)c1C(=O)c1c[nH]c(C(=O)NCc2ccccn2)c1 | 6.77 |
| NS(=O)(=O)c1ccc(NS(=O)(=O)c2ccc(NC(=O)C3CC3)cc2)cc1 | 22.6 |
| Cc1ccccc1N=C1c2cc([N+](=O)[O-])ccc2-c2ncccc21 | -11.1 |
| CCOc1nc(-c2ccc(Cl)cc2)nc2ccccc12 | -5.18 |
| O=C(NCC1CCCO1)c1csc(Nc2cccc3ccccc23)n1 (centres unmarked) | -34.8 |
| CCOc1[nH]n(-c2ccccc2)c(=O)c1C=Nc1ccc(F)cc1F | 14.4 |
| c1ccc(COc2ccccc2CNc2nn[nH]n2)cc1 | 13.1 |
| COc1cc(C)c(Br)cc1S(=O)(=O)NCCN1CCOCC1 | 12.5 |

| SMILES | hERG current change (%, negative = inhibition) at 10uM [%] |
| --- | --- |
| COc1cc(C(C)=O)ccc1Oc1ncnc2c1cnn2-c1ccccc1 | 1.49 |
| O=C(c1ccc(OCC[NH+]2CCCCC2)cc1)c1c(-c2ccc(O)cc2)sc2cc(O)ccc12.[Cl-] | -1.49 |
| COc1ccc2nc3oc(C(=O)NC4CCN(Cc5ccccc5)CC4)cc3cc2c1 | -67.1 |
| COc1ccc(C)cc1S(=O)(=O)Nc1cccnc1 | -10.6 |
| CCOc1ccc(NC(=O)CN(C)C(=O)CSCc2cccc(C)c2)cc1OCC | 2.86 |
| Cc1cc(C)c(NC(=O)CCCCCNC2CCCCC2)c(C)c1.Cl | 2.66 |
| Cc1cc(NC(=O)CSCC(=O)OCC(=O)Nc2cc(C)c(C)cc2[N+](=O)[O-])no1 | 5.52 |
| Cc1cc(NC(=O)C(C)(C)C)no1 | 4.01 |
| COc1ccc(OC)c(-n2c(CNC3CCN(Cc4ccccc4)CC3)nc3ccccc3c2=O)c1 | -76.6 |
| COc1ccc(NC(=O)c2ccc(F)c(F)c2)c2ccccc12 | 25.9 |
| CC12CN3CCN(CC(C3)/C1=N\N=C1/C3CN4CCN(C3)CC1(C)C4)C2 | -3.37 |
| O=C(N/N=C/C=C\c1ccccc1[N+](=O)[O-])c1ccccn1 | -18.1 |
| CC1=NN(C(N)=S)C(=O)C1N=Nc1ccccc1Cl (centres unmarked) | 20.2 |
| CCNc1cc(=O)n(C)c(=O)n1C | -0.391 |
| CCO[C@H]1OC(C(=O)Nc2ccccc2)=C[C@@H](C)[C@@H]1CCCO | 14.1 |
| CN(C)S(=O)(=O)c1ccc(F)c(C(=O)Nc2ccccc2C(=O)NC2CC2)c1 | -38.7 |
| Cc1ccc(C(=O)NCc2nc3ccccc3[nH]2)o1 | 9.61 |
| CC(=O)c1cc2c(cc1NC(=O)CN1CCN(c3ccc(F)cc3)CC1)OCO2 | 15.2 |
| COC(=O)N1C(=O)[C@](Cc2ccccc2)(c2ccccc2)N1C(=O)OC | 10.8 |
| CC(/C=N/NC(=O)CSc1nnc(SCc2ccccc2)s1)=C\c1ccco1 | -13 |
| O=C(O)CCC(=O)Nc1ccc(Cc2ccc(NC(=O)CCC(=O)O)cc2)cc1 | 11.4 |
| CC(C)(CO)N1CCN(C(=S)Nc2ccccc2)CC1 | 5.01 |
| COC(=O)C1C(O)=C(C(C)=Nc2cccc3ccccc23)C(=O)CC1(C)C (centres unmarked) | 4.51 |

| SMILES | hERG current change (%, negative = inhibition) at 10uM [%] |
| --- | --- |
| Cc1ccnc(NC(=O)CCC(=O)N(CC(=O)NC2CCCCC2)Cc2cccs2)c1 | -11.8 |
| Cc1ccc2[nH]c3c(c2c1)CN(C(=O)CN1CCN(Cc2ccc4c(c2)OCO4)CC1)CC3 | -54.8 |
| O=C1C=C(O)CC(c2ccc(Cl)cc2)C1 (centres unmarked) | 10.8 |
| COc1cccc(/C=C/c2nc(C#N)c(NCC(C)C)o2)c1 | 9.83 |
| Cc1cc(NC(=O)C2CC(c3ccccc3Cl)=NO2)no1 (centres unmarked) | 9.72 |
| COc1cccc(C(=O)NCCN2CCOCC2)c1 | 7.25 |
| CCOc1ccc(S(=O)(=O)Nc2cc(S(=O)(=O)N(CC)CC)ccc2N2CCCC2)cc1 | 10.1 |
| CCCCN(C(=O)C1CC(=O)N(CCc2ccc(OC)c(OC)c2)C1)c1c(N)n(CCCC)c(=O)[nH]c1=O (centres unmarked) | 6.61 |
| COc1ccc(Nc2nc(NCc3ccco3)nc(N/N=C/c3ccccc3F)n2)cc1 | -12.3 |
| O=C(N/N=C/c1cc(Br)c(O)c(Br)c1)c1cccnc1 | 10.8 |
| COc1cc(/C=N/n2c(C3CCCCC3)n[nH]c2=S)cc(Br)c1O | 9.84 |
| O=C(COC(=O)CCC(=O)c1ccc(F)cc1)NCc1ccco1 | 0.0638 |
| CCCC(=NC(C)CC)C1=C(O)CC(c2ccccc2)CC1=O (centres unmarked) | -5.78 |
| C=CCN1C(=O)CN=C1Nc1ccc(OC)cc1OC.Cl | 9.13 |
| Cc1nnc(-c2cnn(C)c2N)n1Cc1ccc2c(c1)OCO2 | 5.96 |
| CCc1nccn1S(=O)(=O)c1cc(Br)ccc1OC | 15.8 |
| CC1(C)Cc2nc3sc4c(=O)n(Cc5ccccc5)cnc4c3cc2CS1 | -1.08 |
| O=C1CN(C(=O)C2CCCC2)CCN1 | 27.2 |
| CC(=O)Nc1ccc(S(=O)(=O)NCCc2cn3nc(C)c(C)nc3n2)cc1 | -20.9 |
| CC(C)[C@H](NC(=O)c1cccc(S(=O)(=O)N2CCOCC2)c1)C(=O)Nc1nc2ccccc2s1 | -10 |
| O=C(c1ccco1)N1CCN(CC(O)COc2ccc3oc4ccccc4c3c2)CC1 (centres unmarked) | -66.4 |
| C=CCN(c1ccccc1)S(=O)(=O)c1ccc(Cl)c(C(=O)OCC(=O)c2[nH]c(C)c(C(C)=O)c2C)c1 | 5.67 |
| Cc1cc(=O)n2ncnc2n1COCCO | 0.381 |

| SMILES | hERG current change (%, negative = inhibition) at 10uM [%] |
| --- | --- |
| COc1cccc(C2=NOC(C(=O)Nc3ccccc3SC)C2)c1 (centres unmarked) | -1.99 |
| Cc1ccc(NC(=O)CSc2nc3ccccc3c(=O)n2CC2CCCO2)cc1 (centres unmarked) | 0.693 |
| O=C(N/N=C/c1cccnc1)c1cccc(S(=O)(=O)N2CCCC2)c1 | 15.1 |
| COc1cc(/C=N/N2CCN(c3ccccc3OC)CC2)ccc1OC(C)=O | 17.2 |
| COc1cccc(-n2c(N)c(C(=O)Nc3c(C)n(C)n(-c4ccccc4)c3=O)c3nc4ccccc4nc32)c1 | -9.9 |
| Cc1cccc(C)c1NS(=O)(=O)c1ccc2c(c1)NC(=O)CO2 | 5.47 |
| COC(=O)c1ccccc1OC(=O)c1ccc(Br)o1 | -0.209 |
| Br.Cc1csc(Nc2cccc3ccccc23)n1 | 6.65 |
| COc1cc2c(cc1CN1CCN(C(=O)c3cc(OC)c(OC)c(OC)c3)CC1)OCO2 | 7.88 |
| CSC1=N/C(=C/c2ccc(-n3cncn3)cc2)C(=O)N1 | 6.6 |
| Cc1cccc(NC(=O)/C=C/c2cccs2)n1 | -8.27 |
| O=C(O)CN1C(=O)C(=O)N(Cc2ccc(Cl)c(Cl)c2)C1=O | -35.6 |
| Cc1ccc2c(c1)N(Cc1ccc([N+](=O)[O-])cc1)C=NS2(=O)=O | -45.9 |
| CC1CCN(C(=O)CSc2n[nH]c(-c3cccs3)n2)CC1 | 6.37 |
| CCOC(=O)c1c(C)n(C)c2ccc(OC)c(NS(=O)(=O)CC)c12 | -2.52 |
| COCCCNC(=O)CN1C(=O)c2ccccc2C1=O | 4.45 |
| COc1ccc(OC)c(NC(=O)C(C)SCc2nc3sc(C)c(C)c3c(=O)[nH]2)c1 (centres unmarked) | -14 |
| COc1ccc(S(=O)(=O)N2CCCCCC2)cc1C(=O)OC(C)C(N)=O (centres unmarked) | 13.6 |
| O=[N+]([O-])c1ccc(Cl)c(/C=N/n2c(-c3cccnc3)n[nH]c2=S)c1 | 11.2 |
| COCCN1C(=O)c2ccccc2C(C(=O)NCCN(C)C)C1c1ccc(F)cc1 (centres unmarked) | 16.8 |

From paper PMC4336329 (PLoS ONE, 2015)
